Assay results as given in PubChem BioAssay AID743279 (National Center for Advancing Translational Sciences (NCATS), 2014).
About 17,000 (4.7%) of roughly 360,000 compounds were called active. This list was built around the results that the source calls inconclusive (neither active nor inactive); the mix of calls is not that of the screen. No stated cut-off is given here; in the data, active means activity change below about -50%; inconclusive means mostly about -30% to -49%; inactive means weaker than that.

Assay: qHTS for Inhibitors of Inflammasome Signaling: IL-1-beta AlphaLISA Primary Screen
Details: THP-1 LPS/ATP IL-1B secretion, 16 h; at 57.5 µM, hits give low values
Method in brief: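 THP-1 cells pretreated 1 hr with compounds (up to 57.5 uM final), then stimulated with LPS (250 ng/mL final) plus ATP (1.25 mM final); secreted IL-1B measured by AlphaLISA after 16 hr, decreased signal indicating inhibition.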
On the % scale 0 is the no-effect control and ±100 the full control effect.

Row | SMILES | activity change
1 | Nn1c(SCC(=O)Nc2ccc3c(c2)OCO3)nnc1-c1ccccc1 | inactive: -3.52%
2 | c1ccc2c(c1)CSc1sccc1C2=C1CCNCC1 | active: -57.8%
3 | CCOc1ccc(/C=N/OC(C)C(=O)NCc2ccc3c(c2)OCO3)cc1 (stereo not given) | inactive: -4.41%
4 | O=C(CNC(=O)C1CCCCC1)NCc1ccco1 | inactive: 22.9%
5 | Cc1ccc(-c2noc(-c3ccccc3C(=O)N3CCN(C)CC3)n2)cc1 | inactive: -2.88%
6 | O=C(Nc1cc(Cl)ccc1-n1cncn1)c1cc(S(=O)(=O)N2CCOCC2)ccc1F | inactive: -7.32%
7 | CCOc1ccc(C2C(C#N)=C(N)Oc3n[nH]c(C)c32)cc1OC(=O)C1CC1 (stereo not given) | inconclusive: -36.8%
8 | O=C(CCN1CCc2ccccc21)c1ccc2c(c1)OCCO2 | inconclusive: -46.7%
9 | C=CCNC(=O)c1ccccc1NC(=O)Cc1ccccc1[N+](=O)[O-] | inactive: 8.59%
10 | Cc1ccc(N=CC2=C(O)CC(c3ccco3)CC2=O)cc1 (stereo not given) | inconclusive: -31.8%
11 | CC(=O)c1ccc(N2CCN(C(=O)c3ccc(S(=O)(=O)NCc4ccco4)cc3)CC2)cc1 | inactive: -27.5%
12 | Cc1ccc(NC(=O)N2CCC(c3ccccc3)C2)cc1C (stereo not given) | inconclusive: -44.7%
13 | COc1ccccc1CNC(=O)c1ccc2c(=O)n3c(nc2c1)CCCCC3 | inconclusive: -32%
14 | Cc1ccc(NC(=O)Nc2ccc3c(c2)OCO3)cc1F | inconclusive: -42.9%
15 | O=C1/C(=C/c2ccccc2Cl)SC(=S)N1CCC(=O)N1CCCCC1CCO (stereo not given) | inconclusive: -30.6%
16 | Cc1ccc(-n2nc(C)c(NC(=O)CCl)c2C)cc1C | active: -104%
17 | COc1cc(C(CCN2CCCCC2)c2c(OC)cc(OC)c3c(-c4ccccc4)cc(=O)oc23)cc(OC)c1OC (stereo not given) | inconclusive: -40.6%
18 | Cc1ccc(NC(=O)C(NC2CCCC2)c2ccccc2)cc1Cl (stereo not given) | inconclusive: -46.7%
19 | O=C(Nc1ccc(Cl)c(Cl)c1)OCc1cccnc1 | inconclusive: -37.6%
20 | Cc1ccccc1OCC(=O)OCC(=O)c1cc(C)n(C2CC2)c1C | inactive: -1.57%
21 | COc1ccc(CCNS(=O)(=O)c2ccccc2)cc1OC | inactive: 0.117%
22 | COc1ccc(NC(=O)CSc2ccccn2)c([N+](=O)[O-])c1 | inconclusive: -37.4%

Row | SMILES | activity change
23 | Cc1cc(C(C)c2ccccc2)c(O)c(CN2CCOCC2)c1C (stereo not given) | inconclusive: -32.8%
24 | CCc1ccc(C(=O)C[n+]2cccc3cc(OC)ccc32)cc1 | inconclusive: -45.1%
25 | CCc1nc(SCC(=O)Nc2nc3c(s2)CCCC3)c2ccccc2n1 | active: -85.7%
26 | CCOC(=O)c1c(CSC(=N)N)n(C)c2cc(Br)c(OC(C)=O)cc12 | active: -102%
27 | Cc1ccc(S(=O)(=O)N2C[C@@H](C)[C@]3(C2)[C@H](O)[C@H](OC(=O)NCc2ccccc2)C[C@H]2C(=O)N(c4ccccc4)C(=O)[C@H]23)cc1 | inconclusive: -32.5%
28 | O=C(Nc1cccc(Cl)c1)c1ccc(OC(=S)N2CCOCC2)cc1 | inactive: 11.1%
29 | Cc1ccc(Cl)cc1N(CC(=O)NC1CCCC1)C(=O)c1csnn1 | inactive: 2.5%
30 | CS(=O)(=O)N(CC(=O)N1CCOCC1)c1ccccc1 | inactive: -7.94%
31 | CC(NC(=O)NC(=O)c1ccc(Cl)cc1)c1ccccc1 (stereo not given) | inactive: -9.2%
32 | O=[N+]([O-])c1cc(C(F)(F)F)cc([N+](=O)[O-])c1NCCCNc1ccc([N+](=O)[O-])c2cccnc12 | inconclusive: -32.6%
33 | COc1ccc2cc(C(N)=O)/c(=N/NC(=O)c3ccco3)oc2c1 | inactive: -29.6%
34 | Cc1ccc(NC(=O)c2ccc(CSc3ccccn3)cc2)cc1 | inconclusive: -30.7%
35 | Cc1ccc(N2CC(C(=O)N(C)CC(=O)Nc3ccc(Cl)c(C(F)(F)F)c3)CC2=O)cc1 (stereo not given) | inconclusive: -36.3%
36 | COc1cc(/C=N/n2nnnc2Nc2ccccc2)cc(OC)c1OC | inconclusive: -35.1%
37 | Cc1cc(/C=C(\C#N)C(=O)Nc2ccccc2)c(C)n1-c1ccc(C(=O)O)cc1 | inconclusive: -35.4%
38 | COc1ccc(NC(=O)c2ccco2)cc1NC(=O)COc1ccccc1 | inconclusive: -40.1%
39 | COCC1CCCN(Cc2cn(Cc3ccccc3)nc2-c2cc3ccccc3o2)C1 (stereo not given) | active: -76.2%
40 | CN1CCN(c2ccc([N+](=O)[O-])c(-n3nc(-c4ccccc4)c4ccccc4c3=O)c2)CC1 | inconclusive: -36.6%
41 | CCOc1ccc(-c2nnc(N3CCCCC3)c3ccccc23)cc1 | inconclusive: -45.4%
42 | CCOc1ccc(OCc2ccc(C(=O)NC(C)(C)C)o2)cc1 | inconclusive: -43.4%
43 | COc1cccc(C2CNC3(CCCC(C)C3)c3[nH]c4ccccc4c32)c1OC (stereo not given) | inconclusive: -36.3%
44 | CC(=O)c1cccc(Nc2nc(=O)c3cccnc3s2)c1 | inconclusive: -31.5%

Row | SMILES | activity change
45 | O=C(CCS(=O)(=O)c1ccc(Br)cc1)NC1CCCCCC1 | inactive: 10.7%
46 | CCc1ccc(NC(=O)Cn2c3[n+](c4c(F)c(F)ccc42)CCCCC3)cc1 | inconclusive: -45.3%
47 | CC1CN(C(=O)CSc2nnc(NC(=O)NC(C)(C)C)s2)CC(C)O1 (stereo not given) | inactive: 19.3%
48 | CCOc1ccc(-c2cc(C(=O)NCc3ccc(F)cc3)[nH]n2)c(C)c1 | inconclusive: -39.4%
49 | COCOCCn1cc(CN2CCS(=O)(=O)N(Cc3ccc(-c4ccccc4)cc3)C(CC(C)C)C2=O)nn1 (stereo not given) | inconclusive: -37.1%
50 | O=C(CS(=O)Cc1ccccc1Cl)Nc1ccccc1Cl (stereo not given) | inactive: 3.8%
51 | COc1ccc([C@H]2CN(c3ccc(OC)cc3)C(=O)[C@@H]2CC(=O)Nc2ccccc2)cc1 | inconclusive: -39.4%
52 | COc1ccc(C(=O)N/N=C/c2ccccc2OC(=O)c2ccccc2)cc1 | inactive: 117%
53 | COc1cc(NC(=O)CN2C(=O)C(c3ccccc3)=NC23CCCCCC3)cc(OC)c1 | inconclusive: -34.2%
54 | COc1ccc(CN2CCN(CC=C(C)C)C(CCO)C2)cc1Cn1cccn1 (stereo not given) | inactive: 0%
55 | CNC(=O)c1cc(Nc2nnc(-c3ccc(C)c(S(N)(=O)=O)c3)c3ccccc23)ccc1OC | active: -73.8%
56 | COc1ccc(Cc2noc(CN3CCN(c4ccc(Cl)cn4)CC3)n2)cc1OC | inconclusive: -43.2%
57 | CCCc1cc(=O)oc2cc(C)cc(OC(C)C(=O)N[C@@H](Cc3c[nH]c4ccccc34)C(=O)O)c12 (stereo not given in full) | inactive: 18.6%
58 | CC(=O)c1ccc(N2CCN(CC(O)COC(c3ccccc3)c3ccccc3C)CC2)cc1 (stereo not given) | inconclusive: -38.8%
59 | COc1ccc(OC)c(NS(=O)(=O)c2ccc(NC(C)=O)cc2)c1 | inactive: 31.3%
60 | COCc1cc([C@@H]2C[C@H]3CN(c4ccccc4)C(=O)[C@]34CCCN24)ccc1OC | inactive: -4.59%
61 | COc1cccc(CNCC2CCCO2)c1 (stereo not given) | inactive: 0%
62 | O=C(O)c1ccc(NCCc2ccc(Cl)cc2)c([N+](=O)[O-])c1 | inactive: 28.7%
63 | CN(CCc1ccccc1)C(=O)c1ccc(NC(=O)Cc2ccc(NC(=O)C3CCCN(C(=O)C4CCC4)C3)cc2)cc1 (stereo not given) | inactive: -4.04%
64 | CC1(C)Cc2c(sc3c2c(=N)n(Cc2ccco2)c(=O)n3Cc2ccc(Cl)cc2)CO1 | inconclusive: -44.8%
65 | CC(=O)c1cccc(NC(=O)Nc2ccc3c(c2)N(C)C(=O)CS3)c1 | inconclusive: -31%
66 | COc1ccc(Nc2cccccc2=O)cc1 | inconclusive: -39%

Row | SMILES | activity change
67 | O=C(Nc1ccccc1)Nc1ccc(C(=O)N2CCCC2)cc1 | inconclusive: -30.5%
68 | Cc1nnc(Nc2ccc3c(c2)ncn3C)c2ccccc12 | inconclusive: -30%
69 | CN(C)C(=O)C12CCC(C)(C(=O)C1Br)C2(C)C (stereo not given) | inactive: -21.7%
70 | O=C(/C=C/c1cccc(C(F)(F)F)c1)N1CCN(c2ccccn2)CC1 | active: -95.2%
71 | NC(=S)n1[nH]c(-c2ccc([N+](=O)[O-])cc2)c(N=Nc2cccc(Cl)c2)c1=O | inconclusive: -32.7%
72 | COc1cc(C=O)ccc1OCC(=O)Nc1cccc(S(=O)(=O)N(C)c2ccccc2)c1 | inactive: -7.55%
73 | CCOC(=O)c1[nH]c(C)c(C(=O)NCCc2ccc(OC)cc2)c1C | inactive: -9.93%
74 | COc1cccc(=O)c2c(C)n(-c3cc(C)cc(C)c3)c(C)c12 | inconclusive: -30%
75 | CCCCN(CC)CCCNC(=S)Nc1ccc2nc(N3CCN(CC)CC3)cc(C)c2c1 | inconclusive: -40.2%
76 | COc1cccc(NC(=O)CN(C)C(=O)c2cc(-c3ccccc3)nn2-c2ccccc2)c1 | inconclusive: -31.1%
77 | CCCc1cc(=O)n2[nH]c(-c3cccc(Br)c3)cc2n1 | inconclusive: -45.1%
78 | O=S(=O)(c1ccccc1)c1nc(Nc2ccccc2N2CCOCC2)sc1Cl | inconclusive: -34.8%
79 | CC(=O)c1ccc(S(=O)(=O)N2CCN(C(=O)/C=C/c3ccc4ccccc4n3)CC2)cc1 | inconclusive: -45.8%
80 | O=C(NC1CCCN(CCc2ccccc2)C1)c1c[nH]c2ccccc12 (stereo not given) | inconclusive: -33.6%
81 | CC(=O)Nc1ccccc1OCC(=O)NC1CCCCC1C (stereo not given) | inconclusive: -33.1%
82 | O=C(NC1CCN(Cc2ccccc2)C1)c1cc(S(=O)(=O)N2CCOCC2)ccc1Cl (stereo not given) | inactive: -17.8%
83 | CN(C(=O)COC(=O)c1ccccc1Nc1ccccc1)c1c(N)n(Cc2ccccc2)c(=O)[nH]c1=O | active: -63.3%
84 | Cc1nn(-c2ccccc2)c(Cl)c1C(=O)N1CCN(c2ncnc3c2cnn3-c2ccccc2)CC1 | active: -73.7%
85 | CC(C)CN(C(=O)COC(=O)CCc1c[nH]c2ccccc12)c1c(N)n(Cc2ccccc2)c(=O)[nH]c1=O | inactive: -6.98%
